# Results as given in the supplement of paper PMC8728848.
# Some of the results follow.
# Columns and labels:
# Test in all cases: glycan array binding signal (z-score within array); higher = stronger binding
# Details in all cases: glycan notation: IUPAC condensed, linker removed
# [1] = biological target: Gal(a1-3)Gal(b1-4)GlcNAc(b1-2)Man
# Procedure, shortened: (§1)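 Glycan array data were curated from 3228 arrays in the Consortium for Functional Glycomics database and kept only where the protein sequence was available. Glycan names were converted to IUPAC-condensed notation, and columns mapping to the same glycan were averaged. The binding signal is a within-array Z-score, averaged across arrays of the same protein sequence at different concentrations or buffers and across linkers. Negative Z-scores can be read as non-binding.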
# [2] = biological target: Gal(a1-3)Gal(b1-4)GlcNAc(b1-2)Man(a1-3)[Gal(a1-3)Gal(b1-4)GlcNAc(b1-2)Man(a1-6)]Man(b1-4)GlcNAc(b1-4)GlcNAc
# Procedure, shortened: as §1
# [3] = biological target: Gal(a1-3)Gal(b1-4)GlcNAc(b1-3)GalNAc
# Procedure, shortened: as §1
# [4] = biological target: Gal(a1-3)Gal(b1-4)GlcNAc(b1-6)GalNAc
# Procedure, shortened: as §1
# [5] = biological target: Gal(a1-3)Gal(b1-4)[Fuc(a1-3)]GlcNAc
# Procedure, shortened: as §1
# [6] = biological target: Gal(a1-3)Gal(b1-4)[Fuc(a1-3)]GlcNAc(b1-2)Man(a1-3)[Gal(a1-3)Gal(b1-4)[Fuc(a1-3)]GlcNAc(b1-2)Man(a1-6)]Man(b1-4)GlcNAc(b1-4)GlcNAc
# Procedure, shortened: as §1
# Gal(a1-3)GalNAc = biological target: Gal(a1-3)GalNAc
# Procedure, shortened: as §1
# [7] = biological target: Gal(a1-3)[Gal(a1-4)]Gal(b1-4)GlcNAc
# Procedure, shortened: as §1
# [8] = biological target: Gal(a1-4)Gal(b1-3)GlcNAc(b1-2)Man(a1-3)[Gal(a1-4)Gal(b1-3)GlcNAc(b1-2)Man(a1-6)]Man(b1-4)GlcNAc(b1-4)GlcNAc
# Procedure, shortened: as §1
# Gal(a1-4)Gal(b1-4)Glc = biological target: Gal(a1-4)Gal(b1-4)Glc
# Procedure, shortened: as §1
# Gal(a1-4)Gal(b1-4)GlcNAc = biological target: Gal(a1-4)Gal(b1-4)GlcNAc
# Procedure, shortened: as §1
# [9] = biological target: Gal(a1-4)Gal(b1-4)GlcNAc(b1-2)Man(a1-3)[Gal(a1-4)Gal(b1-4)GlcNAc(b1-2)Man(a1-6)]Man(b1-4)GlcNAc(b1-4)GlcNAc
# Procedure, shortened: as §1
# [10] = biological target: Gal(a1-4)Gal(b1-4)GlcNAc(b1-3)Gal(b1-4)Glc
# Procedure, shortened: as §1
# Gal(a1-4)GlcNAc = biological target: Gal(a1-4)GlcNAc
# Procedure, shortened: as §1
# Gal(a1-6)Glc = biological target: Gal(a1-6)Glc
# Procedure, shortened: as §1
# Gal(b1-2)Gal = biological target: Gal(b1-2)Gal
# Procedure, shortened: as §1
# Gal(b1-3)Gal = biological target: Gal(b1-3)Gal
# Procedure, shortened: as §1
# Gal(b1-3)Gal(b1-4)GlcNAc = biological target: Gal(b1-3)Gal(b1-4)GlcNAc
# Procedure, shortened: as §1
# Gal(b1-3)GalNAc = biological target: Gal(b1-3)GalNAc
# Procedure, shortened: as §1
# [11] = biological target: Gal(b1-3)GalNAc(a1-3)[Fuc(a1-2)]Gal(b1-4)Glc
# Procedure, shortened: as §1
# [12] = biological target: Gal(b1-3)GalNAc(a1-3)[Fuc(a1-2)]Gal(b1-4)GlcNAc
# Procedure, shortened: as §1
# Gal(b1-3)GalNAc(b1-3)Gal = biological target: Gal(b1-3)GalNAc(b1-3)Gal
# Procedure, shortened: as §1
# [13] = biological target: Gal(b1-3)GalNAc(b1-3)Gal(a1-4)Gal(b1-4)Glc
# Procedure, shortened: as §1
# [14] = biological target: Gal(b1-3)GalNAc(b1-4)Gal(b1-4)Glc
# Procedure, shortened: as §1
# [15] = biological target: Gal(b1-3)GalNAc(b1-4)[Neu5Ac(a2-3)]Gal(b1-4)Glc
# Procedure, shortened: as §1
# Gal(b1-3)GlcNAc = biological target: Gal(b1-3)GlcNAc
# Procedure, shortened: as §1
# [16] = biological target: Gal(b1-3)GlcNAc(a1-3)Gal(b1-4)GlcNAc
# Procedure, shortened: as §1
# [17] = biological target: Gal(b1-3)GlcNAc(a1-6)Gal(b1-4)GlcNAc
# Procedure, shortened: as §1
# Gal(b1-3)GlcNAc(b1-2)Man = biological target: Gal(b1-3)GlcNAc(b1-2)Man
# Procedure, shortened: as §1
# [18] = biological target: Gal(b1-3)GlcNAc(b1-2)Man(a1-3)[Gal(b1-3)GlcNAc(b1-2)Man(a1-6)]Man(b1-4)GlcNAc(b1-4)GlcNAc
# Procedure, shortened: as §1
# [19] = biological target: Gal(b1-3)GlcNAc(b1-2)Man(a1-3)[Gal(b1-3)GlcNAc(b1-2)Man(a1-6)]Man(b1-4)GlcNAc(b1-4)[Fuc(a1-6)]GlcNAc
# Procedure, shortened: as §1
# [20] = biological target: Gal(b1-3)GlcNAc(b1-2)Man(a1-3)[GlcNAc(b1-4)][Gal(b1-3)GlcNAc(b1-2)Man(a1-6)]Man(b1-4)GlcNAc(b1-4)GlcNAc
# Procedure, shortened: as §1
# [21] = biological target: Gal(b1-3)GlcNAc(b1-2)[Gal(b1-3)GlcNAc(b1-6)]Man(a1-6)[Gal(b1-3)GlcNAc(b1-2)Man(a1-3)]Man(b1-4)GlcNAc(b1-4)GlcNAc
# Procedure, shortened: as §1
# [22] = biological target: Gal(b1-3)GlcNAc(b1-3)Gal(b1-3)GlcNAc
# Procedure, shortened: as §1
# [23] = biological target: Gal(b1-3)GlcNAc(b1-3)Gal(b1-4)Glc
# Procedure, shortened: as §1
# [24] = biological target: Gal(b1-3)GlcNAc(b1-3)Gal(b1-4)GlcNAc
# Procedure, shortened: as §1
# [25] = biological target: Gal(b1-3)GlcNAc(b1-3)Gal(b1-4)GlcNAc(b1-2)Man(a1-3)[Gal(b1-3)GlcNAc(b1-3)Gal(b1-4)GlcNAc(b1-2)Man(a1-6)]Man(b1-4)GlcNAc(b1-4)GlcNAc
# Procedure, shortened: as §1
# [26] = biological target: Gal(b1-3)GlcNAc(b1-3)Gal(b1-4)GlcNAc(b1-2)[Gal(b1-3)GlcNAc(b1-3)Gal(b1-4)GlcNAc(b1-6)]Man(a1-6)[Gal(b1-3)GlcNAc(b1-3)Gal(b1-4)GlcNAc(b1-2)Man(a1-3)]Man(b1-4)GlcNAc(b1-4)[Fuc(a1-6)]GlcNAc
# Procedure, shortened: as §1
# [27] = biological target: Gal(b1-3)GlcNAc(b1-3)Gal(b1-4)GlcNAc(b1-3)Gal(b1-4)GlcNAc(b1-2)[Gal(b1-3)GlcNAc(b1-3)Gal(b1-4)GlcNAc(b1-3)Gal(b1-4)GlcNAc(b1-6)]Man(a1-6)[Gal(b1-3)GlcNAc(b1-3)Gal(b1-4)GlcNAc(b1-3)Gal(b1-4)GlcNAc(b1-2)Man(a1-3)]Man(b1-4)GlcNAc(b1-4)[Fuc(a1-6)]GlcNAc
# Procedure, shortened: as §1
# [28] = biological target: Gal(b1-3)GlcNAc(b1-3)Gal(b1-4)GlcNAc(b1-6)[Gal(b1-3)GlcNAc(b1-3)]Gal(b1-4)Glc
# Procedure, shortened: as §1
# [29] = biological target: Gal(b1-3)GlcNAc(b1-3)Gal(b1-4)[Fuc(a1-3)]GlcNAc
# Procedure, shortened: as §1
# [30] = biological target: Gal(b1-3)GlcNAc(b1-3)Gal(b1-4)[Fuc(a1-3)]GlcNAc(b1-6)[Gal(b1-3)GlcNAc(b1-3)]Gal(b1-4)Glc
# Procedure, shortened: as §1
# [31] = biological target: Gal(b1-3)GlcNAc(b1-3)GalNAc
# Procedure, shortened: as §1
# [32] = biological target: Gal(b1-3)GlcNAc(b1-6)Gal(b1-4)GlcNAc
# Procedure, shortened: as §1
# [33] = biological target: Gal(b1-3)GlcNAc(b1-6)GalNAc
# Procedure, shortened: as §1
binder,measurement,setting,value
"MPA (Maclura pomifera), P18674 (protein) GVTFDDGAYTGIREINFEYNSETAIGGLRVTYDLNGMPFVAEDHKSFITGFKPVKISLEFPSEYIVEVSGYVGKVEGYTVIRSLTFKTNKQTYGPYGVTNGTPFSLPIENGLIVGFKGSIGYWLDYFSIYLSL",glycan array binding signal (z-score),[1],-0.175
same,glycan array binding signal (z-score),[2],0.129
same,glycan array binding signal (z-score),[3],-0.244
same,glycan array binding signal (z-score),[4],-0.195
same,glycan array binding signal (z-score),[5],-0.212
same,glycan array binding signal (z-score),[6],1.46
same,glycan array binding signal (z-score),Gal(a1-3)GalNAc,-0.108
same,glycan array binding signal (z-score),[7],-0.119
same,glycan array binding signal (z-score),[8],-0.281
same,glycan array binding signal (z-score),Gal(a1-4)Gal(b1-4)Glc,-0.067
same,glycan array binding signal (z-score),Gal(a1-4)Gal(b1-4)GlcNAc,-0.155
same,glycan array binding signal (z-score),[9],-0.203
same,glycan array binding signal (z-score),[10],-0.245
same,glycan array binding signal (z-score),Gal(a1-4)GlcNAc,-0.152
same,glycan array binding signal (z-score),Gal(a1-6)Glc,-0.226
same,glycan array binding signal (z-score),Gal(b1-2)Gal,-0.207
same,glycan array binding signal (z-score),Gal(b1-3)Gal,-0.079
same,glycan array binding signal (z-score),Gal(b1-3)Gal(b1-4)GlcNAc,-0.211
same,glycan array binding signal (z-score),Gal(b1-3)GalNAc,-0.014
same,glycan array binding signal (z-score),[11],-0.091
same,glycan array binding signal (z-score),[12],-0.113
same,glycan array binding signal (z-score),Gal(b1-3)GalNAc(b1-3)Gal,-0.233
same,glycan array binding signal (z-score),[13],-0.208
same,glycan array binding signal (z-score),[14],-0.082
same,glycan array binding signal (z-score),[15],-0.128
same,glycan array binding signal (z-score),Gal(b1-3)GlcNAc,-0.201
same,glycan array binding signal (z-score),[16],-0.292
same,glycan array binding signal (z-score),[17],-0.173
same,glycan array binding signal (z-score),Gal(b1-3)GlcNAc(b1-2)Man,-0.226
same,glycan array binding signal (z-score),[18],-0.101
same,glycan array binding signal (z-score),[19],-0.074
same,glycan array binding signal (z-score),[20],-0.024
same,glycan array binding signal (z-score),[21],-0.234
same,glycan array binding signal (z-score),[22],-0.159
same,glycan array binding signal (z-score),[23],-0.157
same,glycan array binding signal (z-score),[24],-0.219
same,glycan array binding signal (z-score),[25],-0.169
same,glycan array binding signal (z-score),[26],0.102
same,glycan array binding signal (z-score),[27],0.39
same,glycan array binding signal (z-score),[28],-0.039
same,glycan array binding signal (z-score),[29],-0.14
same,glycan array binding signal (z-score),[30],-0.148
same,glycan array binding signal (z-score),[31],-0.286
same,glycan array binding signal (z-score),[32],-0.145
same,glycan array binding signal (z-score),[33],-0.363
